# Measurements taken from the supplement of paper PMC12217912.
# The other results are listed elsewhere or left out. The full chains were built here from the parent and the listed change. Values near 0.05 are background.
# B1: TEV protease; numbered along this chain (parent)
# chain: MGESLFKGPRDYNPISSSICHLTNESDGHTTSLYGIGFGPFIITNKHLFRRNNGTLVVQSLHGVFKVKDTTTLQQHLVDGRDMIIIRMPKDFPPFPQKLKFREPQREERICLVTTNFQTKSMSSMVSDTSCTFPSGDGIFWKHWIQTKDGQCGSPLVSTRDGFIVGIHSASNFTNTNNYFTSVPKNFMELLTNQEAQQWVSGWRLNADSVLWGGHKVFMVKPEEPFQPVKEATQL
# Variants of: B1
# Test: raw area under fraction-flipped curve 0-4 h after induction (AUC4h, not background-subtracted), DNA-recorder readout of cleavage of the substrate (dimensionless); higher = more cleavage of the substrate by the protease variant
# Conditions: temperature: 34 °C; time window: 0-4 h after rhamnose induction
# 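Note: Bxb1 expression induced with 0.2% (w/v) L-rhamnose at OD600 near 0.5, cultures sampled hourly, flipped fraction per protease–substrate barcode pair counted by paired-end Illumina sequencing.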
variant,measurement,value
Q227S,area with substrate CNLYFQS,0.0759
same,area with substrate DNLYFQS,0.0841
same,area with substrate FNLYFQS,0.0598
same,area with substrate HNLYFQS,0.0656
same,area with substrate INLYFQS,0.0941
same,area with substrate NNLYFQS,0.0745
same,area with substrate PNLYFQS,0.0705
same,area with substrate QNLYFQS,0.0829
same,area with substrate SNLYFQS,0.0764
same,area with substrate TNLYFQS,0.067
same,area with substrate VNLYFQS,0.0547
same,area with substrate WNLYFQS,0.0921
same,area with substrate YNLYFQS,0.075
F226I,area with substrate CNLYFQS,0.0527
same,area with substrate DNLYFQS,0.0761
same,area with substrate INLYFQS,0.0716
same,area with substrate KNLYFQS,0.0683
same,area with substrate MNLYFQS,0.0628
same,area with substrate NNLYFQS,0.0911
same,area with substrate SNLYFQS,0.0643
same,area with substrate TNLYFQS,0.0658
same,area with substrate VNLYFQS,0.0712
same,area with substrate WNLYFQS,0.0533
same,area with substrate YNLYFQS,0.068
G8Q,area with substrate HNLYFQS,0.0688
same,area with substrate INLYFQS,0.0613
same,area with substrate KNLYFQS,0.1
same,area with substrate PNLYFQS,0.0416
same,area with substrate SNLYFQS,0.0795
same,area with substrate VNLYFQS,0.108
same,area with substrate WNLYFQS,0.0588
T233R,area with substrate CNLYFQS,0.0487
same,area with substrate DNLYFQS,0.0818
same,area with substrate FNLYFQS,0.0731
same,area with substrate GNLYFQS,0.0663
same,area with substrate HNLYFQS,0.067
same,area with substrate INLYFQS,0.0644
same,area with substrate KNLYFQS,0.0654
same,area with substrate MNLYFQS,0.0634
same,area with substrate TNLYFQS,0.0652
same,area with substrate VNLYFQS,0.0679
same,area with substrate YNLYFQS,0.0608
T233N,area with substrate CNLYFQS,0.0591
same,area with substrate DNLYFQS,0.0188
same,area with substrate GNLYFQS,0.0679
same,area with substrate HNLYFQS,0.0703
same,area with substrate KNLYFQS,0.0757
same,area with substrate SNLYFQS,0.0641
same,area with substrate TNLYFQS,0.066
same,area with substrate WNLYFQS,0.0646
R160S,area with substrate YNLYFQS,0.0582
P225D,area with substrate CNLYFQS,0.067
same,area with substrate DNLYFQS,0.0061
same,area with substrate HNLYFQS,0.0614
same,area with substrate INLYFQS,0.0799
same,area with substrate LNLYFQS,0.0625
same,area with substrate MNLYFQS,0.0684
same,area with substrate PNLYFQS,0.0594
same,area with substrate TNLYFQS,0.0582
same,area with substrate WNLYFQS,0.0701
same,area with substrate YNLYFQS,0.0472
P225L,area with substrate CNLYFQS,0.0725
same,area with substrate DNLYFQS,0.0812
same,area with substrate FNLYFQS,0.0652
same,area with substrate HNLYFQS,0.0724
same,area with substrate MNLYFQS,0.0661
same,area with substrate NNLYFQS,0.0633
same,area with substrate PNLYFQS,0.0864
same,area with substrate TNLYFQS,0.0834
same,area with substrate VNLYFQS,0.0711
same,area with substrate WNLYFQS,0.0468
same,area with substrate YNLYFQS,0.0325
P225V,area with substrate CNLYFQS,0.0708
same,area with substrate DNLYFQS,0.0703
same,area with substrate FNLYFQS,0.0667
same,area with substrate GNLYFQS,0.044
same,area with substrate HNLYFQS,0.0576
same,area with substrate KNLYFQS,0.0606
same,area with substrate LNLYFQS,0.0737
same,area with substrate PNLYFQS,0.0227
same,area with substrate QNLYFQS,0.0733
same,area with substrate RNLYFQS,0.0726
same,area with substrate TNLYFQS,0.0616
same,area with substrate WNLYFQS,0.0532
L112E,area with substrate DNLYFQS,0.0615
same,area with substrate FNLYFQS,0.0467
same,area with substrate GNLYFQS,0.0684
same,area with substrate HNLYFQS,0.0557
same,area with substrate INLYFQS,0.088
same,area with substrate KNLYFQS,0.0601
same,area with substrate MNLYFQS,0.055
same,area with substrate PNLYFQS,0.0579
same,area with substrate RNLYFQS,0.0563
same,area with substrate SNLYFQS,0.0446
same,area with substrate TNLYFQS,0.0604
same,area with substrate VNLYFQS,0.0554
same,area with substrate WNLYFQS,0.0524
K230P,area with substrate CNLYFQS,0.0649
same,area with substrate DNLYFQS,0.103
same,area with substrate FNLYFQS,0.0676
same,area with substrate GNLYFQS,0.0576
same,area with substrate INLYFQS,0.0471
same,area with substrate KNLYFQS,0.0899
same,area with substrate LNLYFQS,0.0644
same,area with substrate MNLYFQS,0.0994
same,area with substrate PNLYFQS,0.0707
same,area with substrate RNLYFQS,0.0718
same,area with substrate SNLYFQS,0.0601
same,area with substrate TNLYFQS,0.0727
same,area with substrate WNLYFQS,0.049
same,area with substrate YNLYFQS,0.0613
K230F,area with substrate CNLYFQS,0.0604
same,area with substrate DNLYFQS,0.0838
same,area with substrate FNLYFQS,0.0612
same,area with substrate HNLYFQS,0.0667
same,area with substrate INLYFQS,0.065
same,area with substrate KNLYFQS,0.069
same,area with substrate LNLYFQS,0.0646
same,area with substrate MNLYFQS,0.0746
same,area with substrate PNLYFQS,0.0686
same,area with substrate TNLYFQS,0.0624
same,area with substrate WNLYFQS,0.064
same,area with substrate YNLYFQS,0.0644
K230I,area with substrate CNLYFQS,0.0617
same,area with substrate DNLYFQS,0.0685
same,area with substrate GNLYFQS,0.0555
same,area with substrate HNLYFQS,0.063
same,area with substrate INLYFQS,0.0634
same,area with substrate LNLYFQS,0.0677
same,area with substrate MNLYFQS,0.0495
same,area with substrate QNLYFQS,0.0532
same,area with substrate SNLYFQS,0.0666
same,area with substrate TNLYFQS,0.0633
same,area with substrate WNLYFQS,0.0577
T176A,area with substrate DNLYFQS,0.0744
same,area with substrate FNLYFQS,0.0611
same,area with substrate INLYFQS,0.0581
same,area with substrate KNLYFQS,0.0607
same,area with substrate LNLYFQS,0.0651
same,area with substrate MNLYFQS,0.0814
same,area with substrate PNLYFQS,0.0603
same,area with substrate SNLYFQS,0.0615
same,area with substrate TNLYFQS,0.0619
same,area with substrate YNLYFQS,0.068
E231Q,area with substrate CNLYFQS,0.0859
same,area with substrate DNLYFQS,0.0689
same,area with substrate FNLYFQS,0.0561
same,area with substrate HNLYFQS,0.0788
same,area with substrate INLYFQS,0.0827
same,area with substrate NNLYFQS,0.0615
same,area with substrate PNLYFQS,0.065
same,area with substrate SNLYFQS,0.0583
same,area with substrate TNLYFQS,0.09
same,area with substrate VNLYFQS,0.097
same,area with substrate YNLYFQS,0.0684
E231A,area with substrate CNLYFQS,0.0445
same,area with substrate DNLYFQS,0.079
same,area with substrate GNLYFQS,0.0855
same,area with substrate HNLYFQS,0.0661
same,area with substrate LNLYFQS,0.0667
same,area with substrate PNLYFQS,0.0617
same,area with substrate TNLYFQS,0.0659
same,area with substrate WNLYFQS,0.0638
same,area with substrate YNLYFQS,0.074
H168C,area with substrate DNLYFQS,0.0581
same,area with substrate HNLYFQS,0.0707
same,area with substrate INLYFQS,0.0458
same,area with substrate KNLYFQS,0.0592
same,area with substrate LNLYFQS,0.0589
same,area with substrate MNLYFQS,0.0706
same,area with substrate TNLYFQS,0.0732
T192F,area with substrate PNLYFQS,0.0696
same,area with substrate SNLYFQS,0.068
same,area with substrate TNLYFQS,0.0593
same,area with substrate WNLYFQS,0.0623
V229I,area with substrate CNLYFQS,0.0638
same,area with substrate DNLYFQS,0.0949
same,area with substrate GNLYFQS,0.0508
same,area with substrate HNLYFQS,0.0664
same,area with substrate INLYFQS,0.0542
same,area with substrate LNLYFQS,0.0797
same,area with substrate PNLYFQS,0.0777
same,area with substrate SNLYFQS,0.0691
same,area with substrate TNLYFQS,0.0687
same,area with substrate WNLYFQS,0.0834
same,area with substrate YNLYFQS,0.0084
V229G,area with substrate CNLYFQS,0.076
same,area with substrate DNLYFQS,0.0917
same,area with substrate FNLYFQS,0.0312
same,area with substrate GNLYFQS,0.0598
same,area with substrate HNLYFQS,0.0644
same,area with substrate KNLYFQS,0.0616
same,area with substrate LNLYFQS,0.0734
same,area with substrate MNLYFQS,0.0651
same,area with substrate NNLYFQS,0.0856
same,area with substrate PNLYFQS,0.108
same,area with substrate SNLYFQS,0.0554
same,area with substrate TNLYFQS,0.0629
same,area with substrate VNLYFQS,0.0865
same,area with substrate WNLYFQS,0.0411
same,area with substrate YNLYFQS,0.0619
V229M,area with substrate CNLYFQS,0.0621
same,area with substrate DNLYFQS,0.076
same,area with substrate GNLYFQS,0.0592
same,area with substrate HNLYFQS,0.0695
same,area with substrate KNLYFQS,0.0503
same,area with substrate MNLYFQS,0.0517
same,area with substrate PNLYFQS,0.0934
same,area with substrate QNLYFQS,0.0644
same,area with substrate RNLYFQS,0.0693
same,area with substrate SNLYFQS,0.0635
same,area with substrate TNLYFQS,0.0579
same,area with substrate WNLYFQS,0.0654
same,area with substrate YNLYFQS,0.0661
Q234L,area with substrate CNLYFQS,0.0671
same,area with substrate DNLYFQS,0.0756
same,area with substrate HNLYFQS,0.0615
same,area with substrate INLYFQS,0.0677
same,area with substrate KNLYFQS,0.0946
same,area with substrate LNLYFQS,0.128
same,area with substrate MNLYFQS,0.103
same,area with substrate NNLYFQS,0.0785
same,area with substrate PNLYFQS,0.0502
same,area with substrate QNLYFQS,0.0726
same,area with substrate SNLYFQS,0.0645
same,area with substrate TNLYFQS,0.0517
same,area with substrate VNLYFQS,0.0827
same,area with substrate WNLYFQS,0.0551
same,area with substrate YNLYFQS,0.0401
Q234F,area with substrate CNLYFQS,0.0619
same,area with substrate DNLYFQS,0.0721
same,area with substrate FNLYFQS,0.0563
same,area with substrate GNLYFQS,0.0608
same,area with substrate INLYFQS,0.0457
same,area with substrate KNLYFQS,0.0591
same,area with substrate LNLYFQS,0.0647
same,area with substrate PNLYFQS,0.0816
same,area with substrate QNLYFQS,0.018
same,area with substrate TNLYFQS,0.0519
same,area with substrate VNLYFQS,0.0712
same,area with substrate YNLYFQS,0.0685
P228H,area with substrate CNLYFQS,0.0689
same,area with substrate DNLYFQS,0.0543
same,area with substrate FNLYFQS,0.0609
same,area with substrate GNLYFQS,0.0588
same,area with substrate HNLYFQS,0.0719
same,area with substrate INLYFQS,0.0629
same,area with substrate LNLYFQS,0.0667
same,area with substrate RNLYFQS,0.0601
same,area with substrate TNLYFQS,0.0742
P228Q,area with substrate CNLYFQS,0.0756
same,area with substrate DNLYFQS,0.0854
same,area with substrate FNLYFQS,0.0664
same,area with substrate GNLYFQS,0.0651
same,area with substrate HNLYFQS,0.0676
same,area with substrate INLYFQS,0.0551
same,area with substrate KNLYFQS,0.0694
same,area with substrate LNLYFQS,0.0584
same,area with substrate MNLYFQS,0.0696
same,area with substrate NNLYFQS,0.0573
same,area with substrate QNLYFQS,0.0711
same,area with substrate SNLYFQS,0.068
same,area with substrate TNLYFQS,0.0582
same,area with substrate VNLYFQS,0.0737
same,area with substrate WNLYFQS,0.063
same,area with substrate YNLYFQS,0.0608
P228V,area with substrate CNLYFQS,0.0651
same,area with substrate DNLYFQS,0.0879
same,area with substrate FNLYFQS,0.0635
same,area with substrate GNLYFQS,0.074
same,area with substrate LNLYFQS,0.0696
same,area with substrate RNLYFQS,0.0814
same,area with substrate TNLYFQS,0.0618
same,area with substrate VNLYFQS,0.0732
same,area with substrate WNLYFQS,0.0682
V200M,area with substrate FNLYFQS,0.0646
same,area with substrate GNLYFQS,0.0532
same,area with substrate HNLYFQS,0.0599
same,area with substrate INLYFQS,0.074
same,area with substrate PNLYFQS,0.0613
same,area with substrate TNLYFQS,0.0375
